Hit rate of the full screen: of about 50,000 compounds, about 800 (1.6%) showed an effect of 50% or more. The list shows a part of the results.
Target: Bcl-2-like protein 10 (Homo sapiens) (UniProt Q9HD36)
Assay: TR3 peptide-Bcl-B binding displacers, biochemical primary FP assay, phenotype converters (AID 1240);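 note: 0% = Bcl-B with tracer peptide and DMSO and 100% = tracer peptide lacking Bcl-B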
Details: GST-Bcl-B / FITC-TR3 peptide fluorescence polarization; stronger effect = higher value; compound at 3.75 mg/L

Sequence of UniProt Q9HD36 (Q9HD36 whole entry, looked up): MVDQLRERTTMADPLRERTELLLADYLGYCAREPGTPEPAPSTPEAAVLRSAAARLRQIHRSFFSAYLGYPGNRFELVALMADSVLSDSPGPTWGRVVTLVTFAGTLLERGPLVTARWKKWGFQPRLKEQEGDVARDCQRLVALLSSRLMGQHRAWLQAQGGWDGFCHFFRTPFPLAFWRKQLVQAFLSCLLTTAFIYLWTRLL

SMILES | displacement [%]
C=COCCNC(=O)C(=O)Nc1c(C)cccc1C | 1.9
Cc1nc(NC(=O)c2ccccc2Br)sc1C | -14.2
CC(C)C1=NN2C(=N)/C(=C/c3ccc(Sc4ccc(Cl)cc4)o3)C(=O)N=C2S1 | -18.4
COC(=O)C1CN(S(=O)(=O)c2ccccc2)CCN1S(=O)(=O)c1ccccc1 (centres undefined) | 0.1
CC(/C=C/c1ccccc1)=N\Nc1ccc([N+](=O)[O-])cc1[N+](=O)[O-] | 14.9
O=C(CC1(O)C(=S)Nc2ccccc21)c1ccc(Br)cc1 (centres undefined) | -14.3
COc1cc(NC(=O)c2ccc(C)c([N+](=O)[O-])c2)cc(OC)c1 | -5.1
CC(=O)NC1=NC(=O)/C(=C\c2ccc(-c3ccc(Cl)c(C(=O)O)c3)o2)S1 | -115
COc1ccccc1C(=O)NNC(=O)COc1ccc(C)cc1C | 5.9
CC(=O)N1C(=O)/C(=C2\SC(=O)NC2=O)c2ccccc21 | -8
COc1cc(/C=N/Nc2ccc([N+](=O)[O-])cc2)ccc1OC(C)=O | 6.1
CCOc1ccccc1/C=N/Nc1nnc(-c2ccccc2)c(=O)[nH]1 | -10.7
COc1ccc(C2=CC(=O)CC(c3ccccc3)C2)cc1 (centres undefined) | -9.1
O=C(O)CN(c1ccc(Cl)cc1)S(=O)(=O)c1ccccc1 | -2.3
COc1cc(/C=C2\C(=O)NN(c3ccccc3)C2=O)cc(OC)c1 | 2.3
CCC(Oc1ccccc1)C(=O)Nc1cc(Cl)ccc1Cl (centres undefined) | -3.6
Cc1ccc(S(=O)(=O)N2CCSC2c2ccccc2)cc1 (centres undefined) | 7.3
CCOc1cc(/C=C2\SC(=S)N(Cc3ccco3)C2=O)ccc1O | -18.8
O=C(Nc1ccccc1Br)c1ccccc1O | -10.4
Cn1c(=O)c2c(ncn2CC(=O)Nc2ncccn2)n(C)c1=O | -4.6
Cc1c(C#N)c2ccc(O)c(CN(C)C)c2n1-c1ccccc1 | 44.3
O=C(Nc1ccc(Cl)cc1Cl)c1cc2nc(-c3ccccc3)cc(C(F)(F)F)n2n1 | -10
Cc1cc(Cl)ccc1OCC(=O)Nc1cccc2nsnc12 | 2.3
CC(C)(C)C(=O)CC(C)(O)c1ccc(Cl)cc1 (centres undefined) | 5.4
O=C(CCc1ccccc1)Nc1cccc(Cl)c1 | 9.2
CN1C(=O)C(=Cc2cc(Cl)ccc2O)C(=O)N(C)C1=O | 2.9
Cc1ccc(C2/C(=C(\O)c3ccc(Cl)cc3)C(=O)C(=O)N2CCCn2ccnc2)cc1 (centres undefined) | -4.6

SMILES | displacement [%]
COC(=O)c1ccc(CN2CCN(CCN3C(=O)c4cccc5cccc(c45)C3=O)CC2)cc1 | -18.2
CC(CC(=O)Nc1ccc(Cl)cc1)c1ccccc1 (centres undefined) | 13.5
CCOC(=O)C1=C(C)NC(=O)NC1c1cc(C)cs1 (centres undefined) | -3.9
O=C(c1cnn2c1NC(c1ccc3c(c1)OCO3)CC2C(F)(F)F)N1CCN(C(c2ccccc2)c2ccccc2)CC1 (centres undefined) | 6.4
Oc1[nH]c2ccccc2c1N=Nc1cccc(C(F)(F)F)c1 | 5.1
Cn1ccnc1SCN1C(=O)c2ccccc2C1=O | -0.8
COc1cc(NC(=O)c2ccc3c(c2)OCCO3)ccc1NC(=O)c1ccco1 | 2.1
CCC(Sc1n[nH]c(=O)[nH]c1=O)C(=O)OCc1ccccc1 (centres undefined) | 1
C=CCN1C(=O)/C(=C\c2ccc(OS(=O)(=O)c3ccccc3[N+](=O)[O-])cc2)SC1=S | -4.5
Cc1ccc(Cn2c(/N=C/c3ccccc3O)nc3ccccc32)cc1 | -6.4
O=C(CSc1nnc(-c2ccc(Br)cc2)o1)NCc1ccccc1 | 13.3
Cc1cc(C)cc(NC(=O)c2cc(-c3cccs3)nc3ccccc23)c1 | -7.8
CC(C(=O)N1C(C)CCCC1C)N1C(=O)c2ccccc2C1=O (centres undefined) | 9.6
NS(=O)(=O)c1cccc(NC(=O)c2cccc(OCc3ccccc3)c2)c1 | 3.8
CC(=O)c1cccc(NC(=O)CN(c2ccccc2)S(=O)(=O)c2ccccc2[N+](=O)[O-])c1 | 6.5
CCOCP(=O)(COCC)COCC | 1.1
CC(C)(C)c1ccc(Cn2c(-c3nonc3N)nc3ccccc32)cc1 | 1.6
CCOC(=O)c1c(NC(=O)c2ccc(Cl)c(Cl)c2)sc(C(=O)Nc2ccccc2OC)c1C | -6
O=C(Nc1cc(Cl)ccc1Cl)C1CC(=O)N(C2CCCCC2)C1 (centres undefined) | -10.9
Cc1ccc(-c2cc(C(=O)N3CCCCCC3)c3ccccc3n2)o1 | 5.4
COc1ccc(C2CC(=O)C3=C(C2)Nc2ccccc2NC3c2ccc(NC(C)=O)cc2)cc1OC (centres undefined) | -4.9
CCN1C(=O)/C(=C\c2cc(Cl)ccc2OCCOc2cccc(OC)c2)SC1=S | -8.1
COc1ccc(C2OCC3C(C)C=C(C)C2C3C)cc1 (centres undefined) | 5.3
CCCCCOC(=O)C1=C(C)NC(=O)NC1c1ccccc1Cl (centres undefined) | 3.9
CCCCOc1ccc(C(=O)O/N=C2\CCOc3cc(OC)ccc32)cc1 | -4
COc1ccc(CCNC(=O)C(=O)Nc2ccc(F)cc2)cc1OC | -8.9
Nc1nc(-c2ccccc2)c(-c2ccccc2)n1/N=C/c1ccccc1 | -0.3

Source: PubChem BioAssay AID1240 (Sanford-Burnham Center for Chemical Genomics, 2008)
